# Assay results published in PubChem BioAssay AID1030 (National Center for Advancing Translational Sciences (NCATS), 2008).
# Several values for one entry are separate records, joined by “and”; a condition that tells them apart may be missing. Equal entries are not always repeated. Out of some 220,000 compounds screened, about 16,000 (7.3%) were called active. This list was built around the results that the source calls inconclusive (neither active nor inactive); the mix of calls is not that of the screen. Calls come from the whole dose curve; as a rule, active = well fitted inhibition curve with a large enough effect (not every such curve was filed as active); inconclusive = small, poorly fitted or top-dose-only effect, or another doubt; inactive = no such curve, though single readings can be large or run the other way. Potencies of inconclusive entries are left out as doubtful fits.
# Molecular target: Aldehyde dehydrogenase 1A1 (Homo sapiens) (UniProt P00352)
# Assay: qHTS Assay for Inhibitors of Aldehyde Dehydrogenase 1 (ALDH1A1);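 for activity, negative = inhibition: plate controls were no enzyme wells and a reference inhibitor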
# Settings: Purified ALDH1A1, NADH fluorescence, propionaldehyde substrate; series mostly up to 75.3 µM; activity, negative = inhibition: at the top concentration
# Potency is the fitted concentration of half-maximal effect; tags give direction and shape of the fitted curve.
# Chain of UniProt P00352 (P00352 whole entry, looked up): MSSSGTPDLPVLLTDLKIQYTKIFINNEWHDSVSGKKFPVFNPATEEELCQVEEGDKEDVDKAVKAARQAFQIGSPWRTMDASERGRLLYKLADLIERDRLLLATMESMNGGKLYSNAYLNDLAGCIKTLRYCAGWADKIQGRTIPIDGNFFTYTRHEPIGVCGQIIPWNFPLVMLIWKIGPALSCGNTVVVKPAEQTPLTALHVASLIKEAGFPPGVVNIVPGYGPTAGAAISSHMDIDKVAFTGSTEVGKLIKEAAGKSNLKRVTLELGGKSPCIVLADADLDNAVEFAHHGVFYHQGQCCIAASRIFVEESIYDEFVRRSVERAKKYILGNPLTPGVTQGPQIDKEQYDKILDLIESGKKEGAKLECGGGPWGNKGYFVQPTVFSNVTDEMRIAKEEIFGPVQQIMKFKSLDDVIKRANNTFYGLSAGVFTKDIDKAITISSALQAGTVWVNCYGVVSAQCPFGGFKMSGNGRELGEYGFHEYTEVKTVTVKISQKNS
SMILES,"activity, negative = inhibition",Potency
Fc1ccccc1/C=N/n1cnnc1,inactive: 2.45%,
CCCCOc1ccc(-c2csc(N)n2)cc1[N+](=O)[O-],,"inconclusive [inhibitor, single point]"
CCOC(=O)/C(C#N)=C/c1ccc(OCC(=O)Nc2ccc(C)c(C)c2)c(OC)c1,,"inconclusive [inhibitor, single point]"
Cc1ccc(C(=O)NCCn2cc(SCC(=O)Nc3nnc(C)s3)c3ccccc32)cc1,,"inconclusive [inhibitor, full curve]"
CCS(=O)(=O)N1CCN(C(=O)c2ccc(-c3ccccc3)cc2)CC1,inactive: -9.26%,
Cc1cc2oc(=O)cc(Cn3ncc(Cl)c(Cl)c3=O)c2cc1Cl,,active: 0.0794 µM
Cc1ccc(C(=O)CSc2nnc(CNc3ccc(C)cc3C)n2Cc2ccco2)cc1,,active: 22.4 µM
O=C1C[C@H]2CCCCC(=O)N3CC[C@@H](C1)[C@@H]23,inactive: -10.9% [at 120 µM],
COc1ccc(OC)c(-n2nnnc2SCC(=O)NCc2ccc3c(c2)OCO3)c1,,active: 12.6 µM
O=C(NCc1ccco1)C(=O)c1cn(CC(=O)N2CCCCCC2)c2ccccc12,,"inconclusive [inhibitor, single point]"
Cc1c(-n2c(SCC(=O)C(C)(C)C)nc3ccccc3c2=O)c(=O)n(-c2ccccc2)n1C,inactive: 4.79%,
COc1ccc(Cl)cc1C(Nc1cccnc1)c1ccc2cccnc2c1O (stereo not drawn),,"inconclusive [inhibitor, full curve]"
COCCCn1nnnc1SCC(=O)Nc1nc(C)c(C)s1,,"inconclusive [inhibitor, single point]"
CCN(CC(=O)NCc1ccc(Cl)cc1)C(=O)c1ccc(S(=O)(=O)N(C)C)cc1,,"inconclusive [inhibitor, partial curve]"
Cc1cc(OCC(=O)Nn2cnnc2)c(C)cc1Br,inactive: 7.51%,
CCc1cccc2c(C(=O)C(F)(F)F)cn(CC(=O)N3CCOCC3)c12,inactive: -0.537%,
COC1=CC(=O)CC(C)C12Oc1c(Cl)c(OC)cc(OC)c1C2=O (stereo not drawn),,"inconclusive [inhibitor, single point]"
COc1ccc(CNC(=O)COC(=O)CCOc2ccccc2)cc1,,"inconclusive [inhibitor, single point]"
Clc1ccc(-n2ncc3c(NCc4cccs4)ncnc32)cc1,,active: 1.58 µM
C[C@@H](C(=O)Nc1ccc2ccccc2c1)[C@H]1C[C@]1(C)[C@H](NC(=O)c1cccnc1)c1ccccc1,,active: 8.91 µM and active: 11.2 µM
Cc1nonc1C1CCCN1Cc1nc(-c2ccccc2Cl)oc1C (stereo not drawn),,"inconclusive [inhibitor, single point]"
Nc1ccc(S(=O)(=O)C(F)(F)F)cc1N,,"inconclusive [inhibitor, single point]"
CC(NS(=O)(=O)c1ccc2c(c1)OCCO2)c1ccccc1 (stereo not drawn),,"inconclusive [inhibitor, partial curve, poor fit]"
CCC(=O)Nc1nc2ccccc2n1Cc1ccc(Cl)cc1,,"inconclusive [inhibitor, single point]"
N#C/C(=C\c1c(N2CCC(C(N)=O)CC2)nc2ccccn2c1=O)C(=O)NCc1ccco1,,"inconclusive [inhibitor, single point]"

SMILES,"activity, negative = inhibition",Potency
Cc1ccc(C)c(Sc2ccc(NC(=O)CCl)cc2)c1,,active: 0.891 µM
Cc1cccn2c(=O)c3cc(C(=O)N4COCC4(C)C)sc3nc12,,"inconclusive [inhibitor, partial curve]"
O=C(/C=C/c1c[nH]c2ccccc12)c1cccc2ccccc12,,"inconclusive [inhibitor, single point]"
COc1ccc(/C=C/C(=O)c2ccncc2)c2ccccc12,inactive: -103%,
O=C(COC(=O)Cc1ccc(Cl)cc1)Nc1ccccc1-c1ccccc1,,"inconclusive [inhibitor, single point]"
CN(C(N)=S)c1ccccc1,inactive: 8.94%,
CCc1c(C(=O)NCc2cnn(C)c2)csc1C,,"inconclusive [inhibitor, single point]"
CCNc1nc(-c2ccc(Cl)cc2)cs1,,"inconclusive [inhibitor, partial curve]"
CC(C)CCNC(=O)CSc1nnc(-c2ccc(S(=O)(=O)N3CCCC3)cc2)n1C,,"inconclusive [inhibitor, single point]"
NC(=O)NOCc1ccccc1F,,"inconclusive [inhibitor, full curve]"
O=C(Nc1ccc(Cl)cc1Cl)NC1CCCC1,inactive: 3.18%,
COC(=O)CN1C2(C#N)CCCCC2CC2CCCCC21C#N (stereo not drawn),inactive: -0.648%,
O=C(COc1cccnc1[N+](=O)[O-])N1CCc2ccccc21,,"inconclusive [inhibitor, single point]"
CCOC(=O)Cn1c(=O)oc2cc(S(=O)(=O)Nc3cc(OCC)ccc3OCC)ccc21,inactive: 0.424%,
Cc1ccc(COc2ccsc2-c2n[nH]c(=S)n2C)cc1,,active: 20 µM
COC(=O)c1[nH]c2ccc(F)cc2c1NC(=O)C1=COCCO1,,"inconclusive [inhibitor, single point]"
O=C(OC1CCOC1=O)c1cc(-c2ccc(Cl)cc2)nc2ccccc12 (stereo not drawn),,"inconclusive [inhibitor, single point]"
COC(=O)[C@@H]1C[C@@]2(O)[C@@H](O)[C@@H](O)[C@@H](O)C[C@H]2N1Cc1ccc(N2CCOCC2)cc1,inactive: 2.67%,
CC1CN(S(=O)(=O)c2ccc(C(=O)Nc3nc(-c4cc5ccccc5o4)cs3)cc2)CC(C)O1 (stereo not drawn),,"inconclusive [inhibitor, single point]"
COc1ccc2oc(-c3ccc(O)cc3)cc(=O)c2c1,,"inconclusive [inhibitor, partial curve]"
Cn1c2ccccc2c2cc(C(=O)N3CCOCC3)sc21,,"inconclusive [inhibitor, single point]"
O=C(NCCO)c1ccc2[nH]c3ccccc3c2c1,,"inconclusive [inhibitor, partial curve]"
CN1CC(c2ccccn2)C2(SC(=S)N(Cc3ccccc3)C2=O)C12C(=O)Nc1ccccc12 (stereo not drawn),,active: 25.1 µM
COc1ccc(C2CC(=O)Oc3ccc(C(C)(C)C)cc32)cc1 (stereo not drawn),,"inconclusive [inhibitor, partial curve, poor fit]"
COc1ccc(-c2nc(CCl)cs2)cc1OC,,"inconclusive [inhibitor, partial curve]"

SMILES,"activity, negative = inhibition",Potency
N#CC1=C(SCC(=O)NC2CCCCC2)NC(=O)CC1c1ccco1 (stereo not drawn),,active: 11.2 µM
COc1cc2c(cc1NC(=O)C(C)OC(=O)C1CC(=O)N(Cc3ccco3)C1)oc1ccccc12 (stereo not drawn),inactive: -9.92%,
CC(=O)Nc1ccc(C(=O)Nc2nc(-c3ccccn3)cs2)cc1,,"inconclusive [inhibitor, single point]"
O=C1N=C(N2CCOCC2)S/C1=C/c1ccc(-c2ccccc2Cl)o1,inactive: -10.3%,
O=C(/C=C/c1cccc([N+](=O)[O-])c1)N1CCN(Cc2ccc3c(c2)OCO3)CC1,,"inconclusive [inhibitor, single point]"
Cc1nc(N2CCOCC2)c2nc(-c3ccccc3)n(CCCN3CCCCC3C)c2n1 (stereo not drawn),,"inconclusive [inhibitor, single point]"
Nc1cccc(C(=O)Nc2ccc3nc(-c4cccnc4)[nH]c3c2)c1,,"inconclusive [inhibitor, single point]"
Nc1c(C(=O)C2CC2)sc2nc(-c3ccccc3)cc(C(F)(F)F)c12,,"inconclusive [inhibitor, single point]"
Cc1ccc(S(=O)(=O)c2n[nH]n3c2nc(=O)c2ccccc23)cc1,,"inconclusive [inhibitor, partial curve]"
OCCC1CN(Cc2nc3c(s2)CCCC3)CCN1CCc1ccccc1 (stereo not drawn),,"inconclusive [inhibitor, single point]"
CCCN1CCN(C(=O)c2cn(CC(C)C)c(=O)c3cc(OC)c(OC)cc23)CC1,,"inconclusive [inhibitor, partial curve]"
CCc1ccc(-n2c(=S)sc3c(=O)n(-c4ccccc4OC)c(=S)[nH]c32)cc1,,active: 12.6 µM
CCC1(CC)Cc2ccccc2-c2nc3ccccc3c(=O)n21,,active: 15.8 µM
CC(C)(C)C1CCC(=NNC(=O)c2cc3c(s2)CCCC3)CC1 (stereo not drawn),,active: 3.98 µM
COc1ccccc1N1CCN(C(=O)C2CCN(S(=O)(=O)c3ccc(F)cc3)CC2)CC1,inactive: -7.43%,
C/C(=N/NC(=O)c1sc(=S)n(C)c1C)c1ccccc1,inactive: -6.53%,
S=C(NCc1ccco1)N1CCN(c2cccc(Cl)c2)CC1,,"inconclusive [inhibitor, single point]"
CCOc1ccc(-n2c(=O)c3c4c(sc3n(CC(=O)NCc3ccco3)c2=O)CCC4)cc1,inactive: 10.1%,
Cc1cc(NS(=O)(=O)c2ccc(NC(=O)c3cc4ccccc4o3)cc2)nc(C)n1,,"inconclusive [inhibitor, single point]"
Cc1ccc[n+](C2C(c3ccc([N+](=O)[O-])cc3)C(C#N)=C([S-])NC2(O)C2CC2)c1 (stereo not drawn),,"inconclusive [inhibitor, single point]"
NNC(=O)c1sc(-c2ccccc2)cc1N,,active: 28.2 µM
CN(C)c1ccc(NC(=O)c2cccc(N3C(=O)CCC3=O)c2)cc1,,active: 18.9 µM
COCc1cc(C)nc(N/N=C/c2ccc(-c3ccc(Cl)cc3[N+](=O)[O-])o2)c1C#N,,"inconclusive [inhibitor, single point]"
